Laboratory results taken from PubChem BioAssay AID1645882 (National Center for Advancing Translational Sciences (NCATS), 2021).
Screen size: about 16,000 compounds; about 120 (0.75%) were called active. Not shown: some 4% with an inconclusive outcome. Calls come from the whole dose curve; as a rule, active = well fitted inhibition curve with a large enough effect; inconclusive = small, poorly fitted or top-dose-only effect; inactive = no such curve, though single readings can be large or run the other way. This is one part of the list.

Molecular target: Rap guanine nucleotide exchange factor 3 (Homo sapiens) (UniProt O95398)
UniProt O95398, sequence (O95398 whole entry, looked up): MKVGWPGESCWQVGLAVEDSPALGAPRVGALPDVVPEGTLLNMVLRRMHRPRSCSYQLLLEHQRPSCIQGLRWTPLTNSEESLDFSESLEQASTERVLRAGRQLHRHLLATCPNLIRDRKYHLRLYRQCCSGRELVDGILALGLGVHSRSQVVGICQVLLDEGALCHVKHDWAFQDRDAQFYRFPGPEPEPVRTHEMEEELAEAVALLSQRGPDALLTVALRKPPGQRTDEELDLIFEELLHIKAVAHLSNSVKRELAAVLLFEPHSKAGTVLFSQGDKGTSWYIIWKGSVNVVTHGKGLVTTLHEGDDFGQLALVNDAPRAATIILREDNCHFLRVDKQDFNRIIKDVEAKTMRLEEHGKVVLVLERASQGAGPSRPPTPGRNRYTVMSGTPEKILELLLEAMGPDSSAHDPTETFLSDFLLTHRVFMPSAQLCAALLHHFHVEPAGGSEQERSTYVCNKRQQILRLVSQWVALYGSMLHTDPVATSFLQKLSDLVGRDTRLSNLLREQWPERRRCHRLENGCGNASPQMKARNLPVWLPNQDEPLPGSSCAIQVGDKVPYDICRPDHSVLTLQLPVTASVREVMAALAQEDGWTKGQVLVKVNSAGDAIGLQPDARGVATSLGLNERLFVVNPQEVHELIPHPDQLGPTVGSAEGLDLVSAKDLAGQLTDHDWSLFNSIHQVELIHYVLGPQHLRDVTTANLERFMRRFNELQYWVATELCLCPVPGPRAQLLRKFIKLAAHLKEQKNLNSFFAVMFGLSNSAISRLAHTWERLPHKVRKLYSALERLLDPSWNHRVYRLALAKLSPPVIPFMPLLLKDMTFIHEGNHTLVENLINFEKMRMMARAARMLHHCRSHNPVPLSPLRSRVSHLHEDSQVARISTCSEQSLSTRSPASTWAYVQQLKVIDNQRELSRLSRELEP
Assay: Validation qHTS for antagonist of cAMP-regulated guanine nucleotide exchange factor 3 (EPAC1);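 note: plate controls were DMSO for no effect and ATA control for full effect; nearly all actives have a fitted effect of over 75% in size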
Settings: EPAC1 Rap1B-BODIPY-GDP exchange, fluorescence; activity change, negative = inhibition: at the top concentration
Summary of the method: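 EPAC1 (100 nM) mixed with 250 nM RAP1B-BODIPY-GDP and 50 uM GDP; compounds in concentration series, 5 min at room temperature. Fluorescence (ex 480/em 540 nm) read every 5 min for 30 min; normalized to ATA control and DMSO.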

Row | SMILES | activity change, negative = inhibition
1 | COc1cc2c(cc1-c1cc3cc4ccoc4cc3oc1=O)OCO2 | inactive: -0.936%
2 | CCCC[C@@H](C)[C@@H](OC(=O)C[C@@H](CC(=O)O)C(=O)O)[C@H](C[C@@H](C)C[C@H](O)CCCC[C@@H](O)C[C@H](O)[C@H](C)N)OC(=O)C[C@H](CC(=O)O)C(=O)O | inactive: 8.81%
3 | COC(=O)[C@H]1[C@@H](OC(=O)c2ccccc2)C[C@@H]2CC[C@H]1N2C | inactive: 28% [at 320 µM]
4 | CCC1C(=O)OC[C@H]1Cc1cncn1C (stereo partly drawn) | inactive: 11.8%
5 | CCN(CC)C(=O)[C@@H]1C=C2c3cccc4[nH]cc(c34)C[C@H]2N(C)C1 | inactive
6 | CCNC1(c2cccs2)CCCCC1=O (stereo not drawn) | inactive: 9.09% [at 75.8 µM]
7 | CC(C)C[C@H](NC(=O)[C@H](Cc1ccccc1)NC(=O)CNC(=O)[C@@H](NC(=O)[C@@H](N)Cc1ccc(O)cc1)[C@H](C)O)C(=O)N[C@H](C(=O)O)[C@H](C)O | inactive: 28% [at 15.3 µM]
8 | CCNC(C)Cc1cccc(C(F)(F)F)c1 (stereo not drawn) | inactive: 19.1%
9 | C1CCC(NC2CCCCC2)CC1 | inactive: 15.3%
10 | COc1ccc(C(=O)CN2CCOCC2)cc1 | inactive: 12.2%
11 | CCC1(c2cccc(O)c2)CCCCN(C)C1 (stereo not drawn) | inactive: 7.27% [at 75.8 µM]
12 | CC(C)[C@]1(O)[C@@H](OC(=O)c2ccc[nH]2)[C@@]2(O)[C@@]3(C)C[C@]4(O)O[C@@]5([C@H](O)[C@@H](C)CC[C@]35O)[C@@]2(O)C41C | inactive: 30.4%
13 | C[C@H](N)Cc1c[nH]c2ccc(OCc3cccs3)cc12 | inactive: 7.14%
14 | CC(=O)OCC1=C(C(=O)O)N2C(=O)C(NC(=O)CCCC(N)C(=O)O)C2SC1 (stereo not drawn) | inactive: -28.3%
15 | C[C@@H]1CC[C@H]2[C@@H](C)C(=O)O[C@@H]3O[C@@]4(C)CC[C@@H]1[C@]32OO4 | inactive: 5.39%
16 | CC(=O)C1=C(O)[C@@H]2[C@@H]3c4c[nH]c5cccc(c45)C[C@@H]3C(C)(C)N2C1=O | inactive: -21.5%
17 | CS(=N)(=O)CC[C@H](N)C(=O)O (stereo partly drawn) | inactive: -3.53% [at 75.8 µM]
18 | NC(=NCCc1ccc(I)cc1)SCCCc1cnc[nH]1 | inactive
19 | CC(C)(C)C(=O)C(Oc1ccc(Cl)cc1)n1cncn1 (stereo not drawn) | inactive: 13.5%
20 | CC(=O)OO | inactive: 10.8%
21 | CN(C)[C@H](Cc1ccccc1)c1ccccc1 | inactive: 19.2%
22 | COc1ccc(CNC(=O)/C=C\c2ccc3[nH]cc(CCN(C)C)c3c2)cc1 | inactive: -4.78%
23 | CNC(C)C(O)c1ccccc1 (stereo not drawn) | inactive: 20.8%

Row | SMILES | activity change, negative = inhibition
24 | CC(C)Oc1cccc(NC(=O)c2ccccc2C(F)(F)F)c1 | inactive: -28% [at 320 µM]
25 | CN1CC[C@@]23CCCC[C@@H]2[C@@H]1Cc1ccc(O)cc13 | inactive: -2.1%
26 | COc1cc(C[C@@H](C)N)c(OC)cc1Br | inactive: 29.8% [at 320 µM]
27 | O=NN1CCCC1c1cccnc1 (stereo not drawn) | inactive: 25.4%
28 | CC(C)c1cc2c(c(O)c1O)[C@]1(C(=O)O)CCCC(C)(C)C1CC2 (stereo partly drawn) | inactive: -3.56%
29 | CCN(C(C)=O)c1cccc(-c2ccnc3c(C#N)cnn23)c1 | inactive: 7.61%
30 | CNC(C)[C@H](O)c1ccccc1 (stereo partly drawn) | inactive: 8.93%
31 | NCCc1c[nH]c2ccc(O)cc12 | inactive
32 | CC(=O)OC[C@]12C[C@H](OC(=O)CC(C)C)C(C)=C[C@H]1O[C@H]1[C@H](O)[C@@H](OC(C)=O)[C@@]2(C)[C@]12CO2 | inactive: -8.52%
33 | O=[N+]([O-])c1ccc([As](=O)(O)O)cc1 | inactive: 5.68%
34 | C1CC[C@H]([C@@]23C[C@H](C[C@H]4CCCN[C@H]42)[C@@H]2CCCCN2C3)NC1 | inactive: -8.1%
35 | CCOCCOC(C)=O | inactive: 16.1% [at 320 µM]
36 | CC[N+](CC)(CC)CC | inactive
37 | CCC(COC(=O)c1cc(OC)c(OC)c(OC)c1)(c1ccccc1)N(C)C (stereo not drawn) | inactive: -20.6%
38 | O=c1cccc2n1CC1CC2CN2CCCCC12 (stereo not drawn) | inactive: 17.1%
39 | CCCN(CCC)CCc1ccc(O)c(O)c1 | inactive
40 | c1cnc(N2CC3(CCNCC3)C2)nc1 | inactive: -1.42%
41 | Cc1nc2cnc(N3CCNCC3)nc2n(C)c1=O | inactive: 8.74%
42 | CC1(C)N([O-])[N+](=O)C1(C)Br (stereo not drawn) | inactive: 10.4%
43 | COc1ccc2c(c1)/C(=C/c1cnc[nH]1)C(=O)N2 | inactive: 7.95% [at 75.8 µM]
44 | C[C@@]12C=CC(=O)C=C1CCC1C2CC[C@]2(C)C(=O)CCC12 (stereo partly drawn) | inactive: 8.79%
45 | COc1ccc2c(c1)[nH]c1c(C)nccc12 | inactive
46 | Ic1ccccc1CNC1C2CCN(CC2)C1C(c1ccccc1)c1ccccc1 (stereo not drawn) | inactive: -1.26% [at 75.8 µM]

Row | SMILES | activity change, negative = inhibition
47 | O=C1c2ccccc2C(=O)c2ccccc21 | inactive
48 | C=C1[C@@H](C)[C@H]2[C@H](Cc3ccccc3)NC(=O)[C@]23OC(=O)/C=C/[C@H](O)CCC[C@@H](C)C/C=C/[C@H]3[C@@H]1O | inactive: 36%
49 | Nc1ccccc1 | inactive: 21.7%
50 | CCOC(OCC)P(=O)(O)CCCN | inactive
51 | ClC1=C(Cl)C2(Cl)C3C4C=CC(C4)C3C1(Cl)C2(Cl)Cl (stereo not drawn) | inactive: 10.8%
52 | c1cncc([C@H]2CCCCN2)c1 | inactive: 10.9%
53 | CC[N+]1(CCOC(=O)C(O)(c2ccccc2)c2ccccc2)CCCCC1 | inactive: 13.4%
54 | C/C=C(/C)C(=O)OC1CC[C@]2(C)C3CCC4[C@]5(O)CC(O)[C@]6(O)C(CN7CC(C)CCC7[C@]6(C)O)[C@]5(O)C[C@@]42O[C@]13O (stereo partly drawn) | inactive: 10.9%
55 | Cc1c(Cl)c(=O)oc2cc(OP(=O)(OCCCl)OCCCl)ccc12 | inactive: 7.74%
56 | COC(=O)COc1cc(Cl)c(Cl)cc1Cl | inactive: 13.7%
57 | COc1ccc(C(=O)O[C@H]2CC[C@@]3(C)C4CCC5[C@]6(O)C[C@H](O)[C@@]7(O)C(CN8C[C@@H](C)CC[C@H]8[C@@]7(C)O)[C@]6(O)C[C@@]53O[C@@]42O)cc1OC (stereo partly drawn) | inactive
58 | CN(C)C1C(=O)C(C(N)=O)=C(O)[C@@]2(O)C(=O)C3=C(O)c4c(O)cccc4[C@](C)(O)C3C(O)C12 (stereo partly drawn) | inactive: 2.85%
59 | C[N+]1(C)[C@@H]2CC[C@H]1CC(OC(=O)C(CO)c1ccccc1)C2 (stereo partly drawn) | inactive
60 | C[C@@H](CO)NC(=O)[C@@H]1C=C2c3cccc4[nH]cc(c34)C[C@H]2N(C)C1 | inactive
61 | Clc1ccc(C(OCCN2CCCCC2)c2ccccc2)cc1 (stereo not drawn) | inactive
62 | COC(=O)N1CCN(C(=O)Cc2ccc(Cl)c(Cl)c2)[C@H](CN2CCCC2)C1 | inactive: -4.42%
63 | CN1CCN(C(=O)OC2c3nccnc3C(=O)N2c2ccc(Cl)cn2)CC1 (stereo not drawn) | inactive
64 | CCCSP(=O)(OCC)SCCC | inactive: 43.1% [at 320 µM]
65 | NCCc1c[nH]c2ccccc12 | inactive
66 | COc1ccc2c(CCN)c[nH]c2c1 | inactive: 38.9%
67 | CN1C2CCC1CC(OC(c1ccccc1)c1ccccc1N)C2 (stereo not drawn) | inactive
68 | CCC[C@@H]1CC2=CC(=O)CC[C@]2(C)[C@@H]2CC[C@@]3(C)[C@H](CC[C@]3(O)CCC(=O)O)[C@H]12 | inactive: 12.1%
